Among all 360,000 compounds or so, about 25,000 (6.9%) were called active. The inconclusive results got no clear call from the source; some entries with a clear call stand among them for comparison. The call rests on the fitted dose curve; in most records, active means well fitted inhibition curve with a large enough effect; inconclusive means small, poorly fitted or top-dose-only effect; inactive means flat fitted curve, though single readings scatter. Potencies beside an inconclusive call are fits to weak or partial responses and may not hold up.
The molecules below were run against Luciferin 4-monooxygenase (Photinus pyralis) (UniProt P08659) (assay: qHTS profiling assay for firefly luciferase inhibitor/activator using purifed enzyme and Km concentrations of substrates (counterscreen for miR-21 project)). Conditions: purified FLuc, luminescence inhibition; series mostly up to 57.5 µM.
Summary of the method: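 Purified P. pyralis luciferase (10nM final) with 10uM D-luciferin and 10uM ATP (Km levels) in 50mM Tris acetate pH 7.5, 10mM Mg acetate, 0.01% Tween-20, 0.05% BSA; qHTS 6-point titration, ~60 µM downward; luminescence read.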
Further: nearly all actives have a fitted effect of over 55% in size.
Potency means the concentration at half of the fitted maximal effect; tags describe the fitted curve by direction and shape.

UniProt P08659, sequence (P08659 whole entry, looked up): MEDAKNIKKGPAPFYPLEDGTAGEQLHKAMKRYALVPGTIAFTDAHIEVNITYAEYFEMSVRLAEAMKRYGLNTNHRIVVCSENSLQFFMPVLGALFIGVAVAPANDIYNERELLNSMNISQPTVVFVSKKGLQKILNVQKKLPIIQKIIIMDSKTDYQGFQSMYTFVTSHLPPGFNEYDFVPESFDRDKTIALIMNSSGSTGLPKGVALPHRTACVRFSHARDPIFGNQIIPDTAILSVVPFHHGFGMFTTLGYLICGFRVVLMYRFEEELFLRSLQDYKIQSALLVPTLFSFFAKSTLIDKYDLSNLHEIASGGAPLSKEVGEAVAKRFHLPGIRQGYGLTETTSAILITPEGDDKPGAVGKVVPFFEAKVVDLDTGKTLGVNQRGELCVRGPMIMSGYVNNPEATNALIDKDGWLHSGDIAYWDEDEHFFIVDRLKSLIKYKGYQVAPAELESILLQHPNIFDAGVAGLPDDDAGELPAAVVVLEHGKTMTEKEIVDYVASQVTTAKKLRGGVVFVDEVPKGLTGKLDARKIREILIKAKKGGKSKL

Row | Structure (SMILES) | Potency
1 | Cc1ccc(C(=O)COC(=O)C2C3C=CC(C3)C2C(=O)OCC(=O)c2ccc(C)c(C)c2)cc1C (stereo unspecified) | inactive
2 | Cc1ccc(N(CC(=O)NCc2ccc(F)cc2)C(=O)c2csnn2)cc1C | inactive
3 | COC(=O)c1ccc(-c2ccc(C(c3c(C)[nH][nH]c3=O)c3c(C)[nH][nH]c3=O)o2)cc1 | inconclusive: 23.9 µM [inhibitor, single point]
4 | Cc1ccccc1OCC(=O)Nc1ccc2nc(SCC(=O)N3CCOCC3)sc2c1 | inconclusive: 13.5 µM [inhibitor, partial curve]
5 | COC(=O)c1cn(NC(=O)Cn2nc([N+](=O)[O-])c(Cl)c2C)c(=O)c2ccccc12 | inconclusive: 15.1 µM [inhibitor, partial curve, poor fit]
6 | O=C(CCC1CCCCC1)Nc1nccs1 | inconclusive: 37.9 µM [inhibitor, single point]
7 | CCCSc1nc(SCC(=O)NCc2ccccc2)c2c3c(sc2n1)COC(C)(C)C3 | inactive
8 | Cc1cc(Br)ccc1NC(=O)CNC(=O)COc1ccccc1C | inactive
9 | CC(C)(C)c1ccc(NC(=O)N2CCCN(c3ccc([N+](=O)[O-])cn3)CC2)cc1 | inconclusive: 37.9 µM [inhibitor, single point]
10 | Cn1c2ccccc2c(=O)c2cc(C#CC3(O)CCCCC3)ccc21 | active: 0.0757 µM
11 | O=C(Cc1nc2ccccc2s1)c1ccc(O)cc1O | inconclusive: 13.5 µM [inhibitor, partial curve]
12 | S=C(Nc1ccc(-c2nc3ccccc3[nH]2)cc1)Nc1cccnc1 | active: 13.5 µM
13 | CCOc1ccc(CNC(=O)C2=Cc3cccc(OC)c3OC2)cc1 | inconclusive: 10.7 µM [inhibitor, partial curve]
14 | Cn1c(/C(C#N)=C/c2cccc(O)c2)nc2ccccc21 | active: 13.5 µM
15 | CC(=O)N(C)c1nnc(-c2ccccn2)s1 | inconclusive: 23.9 µM [inhibitor, single point]
16 | O=C(c1ccccc1Cl)N1CCN(S(=O)(=O)c2cccs2)CC1 | inactive
17 | COc1ccc2c(c1)c(=O)oc1cc(OCC(=O)N3CCc4ccccc4C3)ccc12 | inconclusive: 19 µM [inhibitor, partial curve, poor fit]
18 | CC(C)c1ccc(N2C=Nc3ccc(C(C)C)cc3C2)cc1 | inconclusive: 16.9 µM [inhibitor, partial curve, poor fit]
19 | O=C(CSc1nc(-c2ccccc2)cc(=O)[nH]1)NCc1ccc2c(c1)OCO2 | inconclusive: 23.9 µM [inhibitor, partial curve, poor fit]
20 | O=C(Cc1ccccc1)N/N=C/c1cc(Br)cc(Cl)c1O | inconclusive: 15.1 µM [inhibitor, partial curve, poor fit]
21 | COc1cccc(NC(=O)Nc2cccn(Cc3ccccc3)c2=O)c1 | active: 16.9 µM
22 | O=C(CSCc1ccccc1Br)Nc1ccccc1 | inconclusive: 21.3 µM [inhibitor, partial curve, poor fit]
23 | Cc1nn(-c2ccccn2)c2nc(-c3cccs3)cc(C(=O)NCc3ccco3)c12 | active: 6.75 µM
24 | Cc1cnc(C(=O)Oc2c(C)ccc(C)c2C)cn1 | inactive

Row | Structure (SMILES) | Potency
25 | NS(=O)(=O)c1ccc(CCNC(=O)c2cc(-c3ccco3)nc3ccccc23)cc1 | inconclusive: 23.9 µM [inhibitor, partial curve]
26 | CNc1ccccc(C(=O)/C=C/c2ccccc2OC)c1=O | active: 21.3 µM
27 | CCOC(=O)C1CCCN(C(=O)c2cc(Nc3ccc(OC)cc3OC)nc3ccccc23)C1 (stereo unspecified) | active: 9.53 µM
28 | Cc1nc2cc(NC(=O)Nc3ccccc3Cl)ccc2n1C | active: 0.379 µM
29 | CCC(=O)N1CCc2cc(Br)cc(S(=O)(=O)CCC(=O)Nc3ccc(Cl)cc3)c21 | inactive
30 | CC(=O)N1CCN(C(=O)c2cc(-c3cccc4ccccc34)nc3ccccc23)CC1 | inconclusive: 21.3 µM [inhibitor, single point]
31 | C/C=C\C=C\C(=O)N1CC2(CC(c3cccc(NC(=O)COc4ccc(Cl)cc4)c3)=NO2)C[C@H]1C(N)=O (stereo partly specified) | active: 9.53 µM
32 | CCSc1nnc(NC(=O)C(C)(C)C)s1 | inconclusive: 19 µM [inhibitor, single point]
33 | Cn1c(C(=O)NCc2ccccc2)cc2oc3ccccc3c21 | active: 13.5 µM
34 | CC1CC(C)CN(c2oc(-c3ccccc3F)nc2C#N)C1 (stereo unspecified) | inactive
35 | CCOC(=O)c1ccc(NC(=O)c2ccc(NS(C)(=O)=O)cc2)cc1 | inconclusive: 9.53 µM [inhibitor, partial curve, poor fit]
36 | O=C(CCC(=O)Nc1ccc(Br)cc1)N/N=C/c1cc([N+](=O)[O-])ccc1O | inconclusive: 26.9 µM [inhibitor, partial curve, poor fit]
37 | CCNCC(=O)N1c2ccccc2CCc2ccc(NC(=O)OC(C)C)cc21 | inconclusive: 21.3 µM [inhibitor, partial curve, poor fit]
38 | Cc1cc(F)ccc1S(=O)(=O)Nc1cc2c(C(=O)O)c(C)oc2c2ccccc12 | inconclusive: 5.36 µM [inhibitor, partial curve]
39 | O=C(NNC(=O)c1ccc(-n2cncn2)c([N+](=O)[O-])c1)c1ccccc1 | inactive
40 | CCCCNC(=O)C1CCC(Cn2c(=O)c3sccc3n(CC(=O)Nc3ccccc3)c2=O)CC1 (stereo unspecified) | inactive
41 | Cc1cc(C(C)(C)C)ccc1NC(=O)CC(C)(C)CC(=O)O | inconclusive: 21.3 µM [inhibitor, partial curve]
42 | Cc1ccc(C(=O)N(CCN2CCCCC2)CC2CCCN(C3CCCC3)C2)s1 (stereo unspecified) | inconclusive: 26.9 µM [inhibitor, single point]
43 | COc1ccc(-n2c(=O)c3sc4ccccc4c3n(Cc3ccccc3C)c2=O)cc1OC | inactive
44 | O=C(Nc1ccc(Cl)cc1)c1cc2c(cc1O)[nH]c1ccccc12 | inconclusive: 37.9 µM [inhibitor, partial curve, poor fit]
45 | CCn1c(=NC(=O)CSC(C)=O)sc2cc(OC)ccc21 | inconclusive: 26.9 µM [inhibitor, partial curve, poor fit]
46 | O=C(NC1=NCCS1)c1ccc(Cl)c(Cl)c1 | active: 4.78 µM
47 | O=C(Nc1nccs1)c1cccc(NC(=O)c2ccco2)c1 | inconclusive: 16.9 µM [inhibitor, partial curve, poor fit]
48 | Cc1ccc(S(=O)(=O)N(C)CC(=O)Nc2ccc3c(c2)OCO3)cc1 | inconclusive: 37.9 µM [inhibitor, partial curve, poor fit]

Row | Structure (SMILES) | Potency
49 | CC1C(=O)N2CCCc3cc(S(=O)(=O)N4CCCCC4)cc1c32 (stereo unspecified) | inconclusive: 21.3 µM [inhibitor, partial curve, poor fit]
50 | CCc1ccccc1NC(=O)Cn1c(=O)ccc2cc(S(=O)(=O)N3CCCC3)ccc21 | inactive
51 | O=[N+]([O-])c1ccc(NC(=S)N/C(=N/CS(=O)(=O)c2ccccc2)c2ccccc2)cc1 | inconclusive: 16.9 µM [inhibitor, partial curve]
52 | Cc1ccc(C(=O)O/N=C2\CCCc3ccccc32)cc1 | active: 0.169 µM
53 | CC(C)(C)c1ccc(OCc2ccc(C(=O)N/N=C/c3ccc([N+](=O)[O-])cc3)o2)cc1 | inconclusive: 9.53 µM [inhibitor, partial curve]
54 | COC(=O)c1[nH]c2cc(OC)c(OC)cc2c1/C=N/Nc1ccccc1 | inconclusive: 21.3 µM [inhibitor, partial curve, poor fit]
55 | COc1ccc(OC)c(S(=O)(=O)Nc2c(C)nn(C)c2C)c1 | inactive
56 | COc1ccc(CNc2nc3ccccc3n2C)c(OC)c1 | active: 12 µM
57 | O=C(/C=C/Nc1ccccc1)c1ccc(Oc2ncccn2)cc1 | active: 2.13 µM
58 | O=S(=O)(Nc1cc(Sc2cccc3cccnc23)c(O)c2ccccc12)c1ccc(F)cc1 | inconclusive: 26.9 µM [inhibitor, single point]
59 | Cc1cc(NC(=O)c2ccccc2)ccc1NC(=O)Cc1ccccc1 | inconclusive: 9.53 µM [inhibitor, partial curve, poor fit]
60 | COc1ccc(/C=C2\SC(N)=NC2=O)cc1Br | inconclusive: 12 µM [inhibitor, partial curve]
61 | O=C(c1cc(COc2ccc(F)cc2Cl)on1)N1CC2C[C@@H]3CC1C[C@H](C2)C3 | active: 6.75 µM
62 | COc1c(/C=N/Nc2ccc(C(=O)O)cc2)c(CCN(C)C(C)=O)cc2c1OCO2 | inconclusive: 26.9 µM [inhibitor, single point]
63 | CCOc1ccc(OCc2cccc(C(=O)N3CCCCCC3)c2)cc1 | active: 0.536 µM
64 | CC1CCCN(C(=O)CCc2nnc(-c3ccc4c(c3)OCO4)o2)C1 (stereo unspecified) | inconclusive: 21.3 µM [inhibitor, partial curve]
65 | Cc1ccc(N2CC(NC(=O)c3cccc(Cl)c3)CC2=O)cc1C (stereo unspecified) | inactive
66 | CC(C)c1ccc(/C=C/C(=O)n2nnc3ccccc32)cc1 | active: 1.69 µM
67 | CCn1c(COc2ccccc2)nnc1SCC(=O)CC(=O)Nc1ccccc1OC | inconclusive: 26.9 µM [inhibitor, single point]
68 | CCn1ccc(C(=O)Nc2ccc3c(c2)CCC3)n1 | active: 3.01 µM
69 | O=C(Nc1ccc(OC(F)(F)F)cc1)c1noc2c1CCCC2 | inconclusive: 4.78 µM [inhibitor, partial curve, poor fit]
70 | Cc1cccc(-n2ncc3c(Nc4ccc(F)cc4)ncnc32)c1 | inconclusive: 3.79 µM [inhibitor, full curve]
71 | N#C/C(=N\Nc1ccccc1)C(=N)N1CCOCC1 | inconclusive: 16.9 µM [inhibitor, single point]

Source: PubChem BioAssay AID588342 (National Center for Advancing Translational Sciences (NCATS), 2011)
